Switch fluorescence ratio data for 120 sequences are collected here from the supplement of paper PMC10126150.

Values marked as one replicate rest on one cluster of the flow cell; about a third of the high ones do not repeat.

This data set concerns ATP. Nature of the data set: switch fluorescence ratio, 500 uM ATP over buffer (Cy3 cluster intensity, sum of 5 cycles each) (fold (ratio)); higher = stronger signal-on switching upon ATP binding; sequences stand for … in TCGTCGGCAGCGTCAGATGTGTATAAGAGACAGTTTTTTTTTTTTTTTTTTTTTTTTT…TC. As to conditions: aptamer strand: ATP DNA aptamer (quencher-CACCTGGGGGAGTATTGCGGAGGAAGG + anchor), 100 nM annealed; ATP concentration: 500 uM; one replicate. The procedure, abridged: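 The fluorescence ratio divides summed target-cycle Cy3 intensity by summed buffer-cycle Cy3 intensity for each cluster and is averaged per switch-domain sequence. Cy3-labelled switching-strand clusters on a modified Illumina MiSeq flow-cell were annealed to 100 nM quencher-labelled ATP aptamer, then imaged in selection buffer and again after 15 min with 500 uM ATP at 22 °C. Five such cycles were run, with NaOH stripping and re-annealing between them, and clusters outside 100-1000 RFU were excluded.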
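Further: ATP exposure 15 min at 22 °C before imaging.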

With GTTGCTTAAC, the switch fluorescence ratio came out at 1.03.
On to ATGAAAAGTA, for which the switch fluorescence ratio is 1.
Under GATGATCGCA stands 0.977.
For the sequence ACCAGCAGGT, the switch fluorescence ratio was 0.998.
With TAGGCAATCG the figure was 1.09.
ACGGTCGGAC: the switch fluorescence ratio came out at 1.06.
In the case of TGATTGGCAG, the switch fluorescence ratio stood at 0.964.
On to CAGAGGGAA, for which the switch fluorescence ratio worked out at 1.02.
As to AGTTGGCCGT, the switch fluorescence ratio is 0.984.
With CTGATTACAC the figure was 0.976; with GTGTTAAGAG, 0.979.
Regarding CACAGGCTAC, the switch fluorescence ratio is 1.39.
On to GGTCGAACGG, for which the switch fluorescence ratio is 0.992.
As for CGATGTAGAC, the switch fluorescence ratio stood at 1.38.
For the sequence GACAGTGGGG, the switch fluorescence ratio was found to be 0.985.
Regarding GGGCCGGGG, the switch fluorescence ratio turned out to be 0.967.
In the case of AGTAGTGTAT, the switch fluorescence ratio was determined as 0.999.
In the case of GTCAATGTTT, the switch fluorescence ratio was 1.02.
Consider CATTTTTACA, for which the switch fluorescence ratio amounted to 0.98.
As to GTTTTACGTT, the switch fluorescence ratio is 0.989.
With AAAGAACTCG, the switch fluorescence ratio was found to be 1.04.
Under TACGAAGTTA stands 0.978; under ATGACAGGAA, 0.992.
Consider GCAATCAAAA, for which the switch fluorescence ratio worked out at 1.01.
Under CCTCTCGAG stands 1.4; under CCCATGTTCC, 1.16.
For CTAAAAGCAT, the switch fluorescence ratio stood at 1.21.
On to AAGCGGATCG, for which the switch fluorescence ratio was found to be 1.03.
For TGGGCCATTT, the switch fluorescence ratio amounted to 0.978.
With ATAGGAGTTT the figure was 0.975; with GCTAAGTCTT, 1.01; with CGTTGCATGG, 1.06.
With GCGTACGATT the figure was 1.01; with CACCTGAGGG, 0.963.
For GAGAGCTCGG, the switch fluorescence ratio was determined as 0.992.
For the sequence TTTTATCATA, the switch fluorescence ratio came out at 1.02.
With TCAAACTATG, the switch fluorescence ratio is 0.963.
Turning to CGTAGAACGA, the switch fluorescence ratio came out at 1.02.
With CGACTGTGCG, the switch fluorescence ratio came to 1.02.
For GACATCTATG, the switch fluorescence ratio was found to be 1.02.
Take ATGTGCCTAG: the switch fluorescence ratio came to 1.01.
For the sequence CGAGGTTAGA, the switch fluorescence ratio came out at 0.997.
As for TTGGGCTCGG, the switch fluorescence ratio amounted to 0.99.
Under ACTACGACCT stands 1.46; under TACTTTGAAG, 1.04; under TTCAACGCCG, 0.946.
Turning to GTTTACACGT, the switch fluorescence ratio stood at 1.06.
On to TTAGCATGCG, for which the switch fluorescence ratio stood at 1.04.
With CATAGCCTTA the figure was 0.948; with TTGGAACAGT, 0.993; with GTTATTATCC, 0.989.
On to CTAACGTCTT, for which the switch fluorescence ratio came out at 0.97.
As to ATCCACCGGT, the switch fluorescence ratio worked out at 1.11.
In the case of CATTCGTAAT, the switch fluorescence ratio came to 4.97.
Consider TCAATCCATT, for which the switch fluorescence ratio was found to be 0.96.
For CAGTAGTGCG, the switch fluorescence ratio turned out to be 0.955.
Regarding CTCACGGGGT, the switch fluorescence ratio amounted to 1.09.
AGCTATAAAG: the switch fluorescence ratio worked out at 1.04.
In the case of CTCTATCACG, the switch fluorescence ratio amounted to 1.09.
Consider AAGTTTGGAG, for which the switch fluorescence ratio came to 0.986.
In the case of GGGCTCCCCG, the switch fluorescence ratio stood at 1.39.
In the case of GTACTTTTCC, the switch fluorescence ratio amounted to 1.18.
On to GGTGTAGTCC, for which the switch fluorescence ratio was 0.957.
Turning to AGCTAGCCAG, the switch fluorescence ratio was 0.971.
Take CGGGAGCCTG: the switch fluorescence ratio stood at 0.984.
With AGCACGTCGA, the switch fluorescence ratio worked out at 1.08.
Regarding TACTTTTCGG, the switch fluorescence ratio was 0.99.
With CCACAATTAG, the switch fluorescence ratio worked out at 1.7.
On to TCAGTAAGAT, for which the switch fluorescence ratio turned out to be 1.03.
On to TCAATGTATC, for which the switch fluorescence ratio was found to be 1.01.
For CGTTGACCAA, the switch fluorescence ratio is 1.03.
Take CAGATTGGTT: the switch fluorescence ratio was 0.989.
As to GCCGAGGTAA, the switch fluorescence ratio was determined as 1.04.
Regarding AATGACTTGG, the switch fluorescence ratio was found to be 0.99.
For AGAGCCTCAG, the switch fluorescence ratio worked out at 1.
As to TACTCTGGGG, the switch fluorescence ratio was 1.04.
Regarding TTTTTC, the switch fluorescence ratio was determined as 0.983.
On to TAAATTTTA, for which the switch fluorescence ratio is 1.02.
In the case of CCTGGTGCTG, the switch fluorescence ratio is 1.08.
On to CAGAAAGCGA, for which the switch fluorescence ratio amounted to 1.18.
For the sequence TCTTGATTTA, the switch fluorescence ratio was found to be 1.02.
TACCCAGCAG: the switch fluorescence ratio is 1.06.
As to TCATCCTTAG, the switch fluorescence ratio was determined as 1.07.
On to GCAACGGAAA, for which the switch fluorescence ratio came out at 1.03.
Consider TCGGGGCGCA, for which the switch fluorescence ratio was found to be 0.956.
Take GGTGGGTCTG: the switch fluorescence ratio was 1.03.
As to AGCTGTGCCA, the switch fluorescence ratio was 0.933.
Under TCATGAGAGG stands 0.992; under CAAGATAGTT, 1.01.
On to AGATTGAAGA, for which the switch fluorescence ratio turned out to be 0.972.
AAGACGTAAT: the switch fluorescence ratio is 1.19.
Consider TTTACAAGTT, for which the switch fluorescence ratio was 1.01.
Take TTTAATCTA: the switch fluorescence ratio amounted to 0.983.
Under GAAGAGCATA stands 1.1.
Turning to ACATATTCAC, the switch fluorescence ratio amounted to 1.07.
With ACTGAGTTGC, the switch fluorescence ratio is 1.06.
Take AGCAACCCAC: the switch fluorescence ratio was determined as 1.53.
With TTCTGAGCG the figure was 1.01; with TAGCGTCGCT, 0.951.
Under TGACGCCACC stands 3.47.
Take AGTGGTCCAG: the switch fluorescence ratio is 1.02.
For the sequence ATAGCCCCAC, the switch fluorescence ratio was found to be 1.
With GCCGGATGAC the figure was 1.02.
Under TGAGACCAAA stands 0.952; under TCGTAATGCT, 1.38.
With TAGCGTGCTC, the switch fluorescence ratio worked out at 1.02.
With ATAGGTACTT the figure was 1.03; with ATATTTCGCG, 1.01; with TCTTCCATGG, 1.03.
On to AGCCCCGAAC, for which the switch fluorescence ratio was determined as 2.72.
Take CGAGGTCACC: the switch fluorescence ratio turned out to be 1.04.
Regarding GTATGAGCTG, the switch fluorescence ratio came to 0.957.
Consider AGTGTGACGC, for which the switch fluorescence ratio was 0.933.
Under TGTGACCAGA stands 1.
Under TTACAGTTAT stands 1.02.
Consider AGAGTAGTT, for which the switch fluorescence ratio amounted to 1.03.
With CTAAAAGCCA the figure was 1.02; with CTGACGTCTG, 0.966.
In the case of CCGGTCCGGG, the switch fluorescence ratio came out at 1.03.
With TGCCACTCCG the figure was 1.18.
